According to the supplement of paper PMC8728848:
Some of the results follow.

How the values were obtained:
Assay in all cases: glycan array binding signal (z-score within array); higher = stronger binding
Settings in all cases: glycan notation: IUPAC condensed, linker removed
[1] = target: Fuc(a1-2)[Gal(a1-3)]Gal(b1-4)GlcNAc(b1-2)Man(a1-3)[Fuc(a1-2)[Gal(a1-3)]Gal(b1-4)GlcNAc(b1-2)Man(a1-6)]Man(b1-4)GlcNAc(b1-4)GlcNAc
How it was run: (§1)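 The Consortium for Functional Glycomics database supplied 3228 glycan arrays, of which those lacking an available protein sequence were dropped. The binding signal, a within-array Z-score, was averaged across arrays of the same protein sequence and across linkers. Negative scores can be read as non-binding.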

[2] = target: Fuc(a1-2)[Gal(a1-3)]Gal(b1-4)[Fuc(a1-3)]GlcNAc
How it was run: as §1

[3] = target: Fuc(a1-2)[Gal(a1-4)]Gal(b1-4)GlcNAc
How it was run: as §1

[4] = target: Fuc(a1-2)[GalNAc(a1-3)]Gal
How it was run: as §1

[5] = target: Fuc(a1-2)[GalNAc(a1-3)]Gal(b1-3)GlcNAc
How it was run: as §1

[6] = target: Fuc(a1-2)[GalNAc(a1-3)]Gal(b1-3)GlcNAc(b1-2)Man(a1-3)[Fuc(a1-2)[GalNAc(a1-3)]Gal(b1-3)GlcNAc(b1-2)Man(a1-6)]Man(b1-4)GlcNAc(b1-4)GlcNAc
How it was run: as §1

[7] = target: Fuc(a1-2)[GalNAc(a1-3)]Gal(b1-4)Glc
How it was run: as §1

[8] = target: Fuc(a1-2)[GalNAc(a1-3)]Gal(b1-4)GlcNAc
How it was run: as §1

[9] = target: Fuc(a1-2)[GalNAc(a1-3)]Gal(b1-4)GlcNAc(b1-2)Man(a1-3)[GalNAc(a1-3)[Fuc(a1-2)]Gal(b1-4)GlcNAc(b1-2)Man(a1-6)]Man(b1-4)GlcNAc(b1-4)GlcNAc
How it was run: as §1

[10] = target: Fuc(a1-2)[GalNAc(a1-3)]Gal(b1-4)GlcNAc(b1-3)Gal(b1-4)GlcNAc
How it was run: as §1

[11] = target: Fuc(a1-2)[GalNAc(a1-3)]Gal(b1-4)GlcNAc(b1-3)Gal(b1-4)GlcNAc(b1-3)Gal(b1-4)GlcNAc
How it was run: as §1

[12] = target: Fuc(a1-2)[GalNAc(a1-3)]Gal(b1-4)[Fuc(a1-3)]GlcNAc
How it was run: as §1

[13] = target: Fuc(a1-2)[GalNAc(a1-4)]Gal(b1-4)GlcNAc
How it was run: as §1

[14] = target: Fuc(a1-2)[GalNAc(b1-3)]Gal
How it was run: as §1

Fuc(a1-3)GlcNAc = target: Fuc(a1-3)GlcNAc
How it was run: as §1

[15] = target: Fuc(a1-3)[Gal(b1-4)]Glc6S
How it was run: as §1

[16] = target: Fuc(a1-3)[Gal(b1-4)]GlcNAc
How it was run: as §1

[17] = target: Fuc(a1-3)[Gal(b1-4)]GlcNAc(b1-2)Man(a1-3)[Fuc(a1-3)[Gal(b1-4)]GlcNAc(b1-2)Man(a1-6)]Man(b1-4)GlcNAc(b1-4)GlcNAc
How it was run: as §1

[18] = target: Fuc(a1-3)[Gal(b1-4)]GlcNAc(b1-2)Man(a1-6)[Gal(b1-4)GlcNAc(b1-2)Man(a1-3)]Man(b1-4)GlcNAc(b1-4)GlcNAc
How it was run: as §1

[19] = target: Fuc(a1-3)[Gal(b1-4)]GlcNAc(b1-3)Gal(b1-3)[Fuc(a1-4)]GlcNAc
How it was run: as §1

[20] = target: Fuc(a1-3)[Gal(b1-4)]GlcNAc(b1-4)Gal(b1-4)[Fuc(a1-3)]GlcNAc
How it was run: as §1

[21] = target: Fuc(a1-3)[Gal(b1-4)]GlcNAc(b1-4)Gal(b1-4)[Fuc(a1-3)]GlcNAc(b1-4)Gal(b1-4)[Fuc(a1-3)]GlcNAc
How it was run: as §1

[22] = target: Fuc(a1-3)[Gal(b1-4)]GlcNAc6S
How it was run: as §1

[23] = target: Fuc(a1-3)[Gal3S(b1-4)]Glc6S
How it was run: as §1

[24] = target: Fuc(a1-3)[Gal3S(b1-4)]GlcNAc
How it was run: as §1

[25] = target: Fuc(a1-3)[Gal3S(b1-4)]GlcNAc6S
How it was run: as §1

[26] = target: Fuc(a1-3)[GalNAc(b1-4)]GlcNAc
How it was run: as §1

[27] = target: Fuc(a1-3)[Neu5Ac(a2-3)]Gal(b1-4)GlcNAc(b1-3)GalNAc
How it was run: as §1

Fuc(a1-4)GlcNAc = target: Fuc(a1-4)GlcNAc
How it was run: as §1

Fuc(b1-3)GlcNAc = target: Fuc(b1-3)GlcNAc
How it was run: as §1

B1: Sialidase (Vibrio cholerae), P37060 (protein)
chain: GAMALFDYNATGDTEFDSPAKQGWMQDNTNNGSGVLTNADGMPAWLVQGIGGRAQWTYSLSTNQHAQASSFGWRMTTEMKVLSGGMITNYYANGTQRVLPIISLDSSGNLVVEFEGQTGRTVLATGTAATEYHKFELVFLPGSNPSASFYFDGKLIRDNIQPTASKQNMIVWGNGSSNTDGVAAYRDIKFEIQGDALNGSMALFDYNATGDTEFDSPAKQGWMQDNTNNGSGVLTNADGMPAWLVQGIGGRAQWTYSLSTNQHAQASSFGWRMTTEMKVLSGGMITNYYANGTQRVLPIISLDSSGNLVVEFEGQTGRTVLATGTAATEYHKFELVFLPGSNPSASFYFDGKLIRDNIQPTASKQNMIVWGNGSSNTDGVAAYRDIKFEIQGDLQALGMALFDYNATGDTEFDSPAKQGWMQDNTNNGSGVLTNADGMPAWLVQGIGGRAQWTYSLSTNQHAQASSFGWRMTTEMKVLSGGMITNYYANGTQRVLPIISLDSSGNLVVEFEGQTGRTVLATGTAATEYHKFELVFLPGSNPSASFYFDGKLIRDNIQPTASKQNMIVWGNGSSNTDGVAAYRDIKFEIQGD
[1]
  glycan array binding signal (z-score): -0.105
[2]
  glycan array binding signal (z-score): 0.119
[3]
  glycan array binding signal (z-score): -0.321
[4]
  glycan array binding signal (z-score): -0.425
[5]
  glycan array binding signal (z-score): -0.413
[6]
  glycan array binding signal (z-score): -0.659
[7]
  glycan array binding signal (z-score): -0.532
[8]
  glycan array binding signal (z-score): -0.297
[9]
  glycan array binding signal (z-score): 0.218
[10]
  glycan array binding signal (z-score): -0.393
[11]
  glycan array binding signal (z-score): 0.886
[12]
  glycan array binding signal (z-score): -0.537
[13]
  glycan array binding signal (z-score): -0.635
[14]
  glycan array binding signal (z-score): -0.589
Fuc(a1-3)GlcNAc
  glycan array binding signal (z-score): -0.622
[15]
  glycan array binding signal (z-score): 0.405
[16]
  glycan array binding signal (z-score): -0.499
[17]
  glycan array binding signal (z-score): -0.346
[18]
  glycan array binding signal (z-score): -0.675
[19]
  glycan array binding signal (z-score): -0.288
[20]
  glycan array binding signal (z-score): -0.513
[21]
  glycan array binding signal (z-score): -0.314
[22]
  glycan array binding signal (z-score): -0.047
[23]
  glycan array binding signal (z-score): 0.597
[24]
  glycan array binding signal (z-score): -0.275
[25]
  glycan array binding signal (z-score): -0.202
[26]
  glycan array binding signal (z-score): -0.6
[27]
  glycan array binding signal (z-score): -0.125
Fuc(a1-4)GlcNAc
  glycan array binding signal (z-score): -0.46
Fuc(b1-3)GlcNAc
  glycan array binding signal (z-score): -0.673
